Some of the results follow. At the low end of the ranking, values are background and their order means little. Measured with an extract: partners may take part in the binding.
Target: T1, HNF4alpha2 (COS-7 nuclear extract) (UniProt P41235)
T1 sequence: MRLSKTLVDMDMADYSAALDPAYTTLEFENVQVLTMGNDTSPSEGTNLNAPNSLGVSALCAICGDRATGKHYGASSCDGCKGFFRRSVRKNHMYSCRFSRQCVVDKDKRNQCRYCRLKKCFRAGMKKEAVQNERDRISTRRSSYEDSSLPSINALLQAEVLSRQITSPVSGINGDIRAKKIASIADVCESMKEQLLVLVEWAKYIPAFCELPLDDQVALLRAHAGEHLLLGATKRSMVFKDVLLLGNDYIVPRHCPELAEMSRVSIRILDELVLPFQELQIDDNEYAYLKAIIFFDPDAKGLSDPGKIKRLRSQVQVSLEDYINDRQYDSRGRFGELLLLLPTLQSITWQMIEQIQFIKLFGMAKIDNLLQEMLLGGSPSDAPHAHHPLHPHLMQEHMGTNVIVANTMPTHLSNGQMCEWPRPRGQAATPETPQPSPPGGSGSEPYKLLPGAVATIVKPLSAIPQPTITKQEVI
Assay: protein-binding microarray
Conditions: COS-7 nuclear extract on double-stranded Agilent 4x180k PBM; binding buffer, salt, pH and temperature not given; high values mean tight binding; double strand, one strand shown; sequences stand for … in …GCCTAGGGAGATTAGAGTATCGGTCGA

| Sequence | binding signal (log2 normalized intensity) |
| --- | --- |
| CTAATCAGGCCTCCCTCCCTCCCCCATTAG | 4.81 |
| ACAGAGCTATTTTAGGGTAAAGATCTTGGG | 0.15 |
| GACACAAAAGGGTACAGCAGCATAAAGGAC | -1.16 |
| AGGCACTGGGATCCAAAGTTCATGGAAAGT | 2.4 |
| TCTGTATGTCTAAGGTTTCTCAGCCCCATC | 4.27 |
| CTTGGCCTCAATGTTTACACTTCCATGTTT | 1.61 |
| CCAAAGGTTAAGGAAACAAGGGTACCAACA | -0.844 |
| GATCAAAGGCCACCGTTGGAATGTTCCAAG | 1.18 |
| CTGATCCTCTCCATGCAGCCAGGGTCAGGA | 1.51 |
| ACGTTTTCCTGCTGACCCTCTCCCCACCAT | 4.72 |
| AGACATCATATTTGTTATATTTGTTATACC | 1.72 |
| GTGAATTTCAGTGCCCTTTGAGATTTGCAT | 2.01 |
| AGTGAGCTAAGATTGGACTCTGCACTCCAG | 5.21 |
| CAGAAAAGGTAAGTGACCCTGGTCTTTGCC | 1.73 |
| GAACTCCCTATCCCCAGATTCCAGGGGAGG | -1.26 |
| TGAGTATCCAAAGGTCAGTGACAAATGTCA | 3.65 |
| TCTTAGCAGAGATTCCTGCTGAGTTATCTC | -1.23 |
| CTGCCAGTTGTCATTTGGGGCGGGCGGTCG | 1.74 |
| CTAAGGCAGGGAAGGAGAGTGACCTCTGCT | 2.87 |
| ACTCTAGGAACTTGTCTAAAAACATTGTGG | 1.37 |
| ACTCTTTGTTATTTATTGGCCAGTAGCTCT | 1.34 |
| ACCTGTTACAAAACAGGTTCTTCCACGACT | -1.18 |
| GGGTCCTACAGAACCTCCCTCCCCATCTCC | 3.82 |
| TCTGCAAACTTCATGGCTTAAAACGACTGA | -0.771 |

| Sequence | binding signal (log2 normalized intensity) |
| --- | --- |
| TTTGGAATTTGACCTCATTTGCTCCCAGTG | 3.85 |
| ACATTGTGTCAATTCCAAAGTTCAAGTAGA | 3.83 |
| ACCTTTGCCCTGGATCTTGAAGCAGAAAAC | 1.58 |
| TTAGAGTCCAGACACAAAGAGACAAAGCTT | -1.14 |
| ATCCCCAGTATAAACAACACAGAACTAGCC | -1.14 |
| CTTTTCTTCCCCCCTCCCTCCGCAACCTTT | 5.66 |
| ATGAGATAAGATGAAGCTCTCAGAATAGCA | -1.16 |
| CAGGGTGACGTCATTGGAAATCCGAAATAA | 0.688 |
| TTAGTCCCTAAGTCTTTCAAAGAAAAGCCT | -1.04 |
| GTCCAGCCACAATTAATGTACCCCCGGAAA | 4.29 |
| AAGAGAGAAAGAAACAGGGGATGTTGATTC | -1.02 |
| GCTGACGCCGCCTCTGCCTCTTGACCCCTT | 5.39 |
| CTTGTGGATCCTTGGAGGACCTTGGGTTCA | 2.49 |
| CATCCTGAGGCAAAATTCCTCGCTAGCTGT | -1.23 |
| AATATCTTCCCATAAAACCTAGACAGAAGC | -1.19 |
| GATGGGGGCAAAGGTTGACACCTAGCTGAG | 4.08 |
| CACAGGAGAGGAGAAAGAGCAATCTCTCAT | -1.17 |
| TGGGAGCTAATGAGCACATTCTTCAATATC | -1.01 |
| TTTCACTTTTTCCCTGCATGTTCACCTCTT | 1.51 |
| TAGCCACTCTACAACAAAGGAAATGAAGCA | -0.885 |
| GGAAAGCTATCCCGGCCAACGGTCGGAAGG | -0.959 |
| GGCGTCTCTTAGTATTACCATGTCCTGTGA | 1.09 |
| AAAATCACTTGGATAGCGCGTGGCCCAAGG | -1.17 |
| AGCACTCAAATGATCAAAGAAGCCCAGGGC | -1.08 |

| Sequence | binding signal (log2 normalized intensity) |
| --- | --- |
| GCTATCAATGACCCATGTTTGCCCTTGATA | 2.46 |
| AGAGGGCCTCTGCTTGTCTTGGTTGTAGAA | 1.03 |
| AAAGATCATCTGGTGGCTTGAGTTGGAGAA | 0.452 |
| TAAAGTCTGTTTGATTCCATGCTGATAATG | 1.42 |
| AGCTCTTTGCACAGTACTGATCTGGGGCCT | -0.475 |
| CATAGTGGGTTTCGGTGTCATCTAGACCTG | 1.1 |
| GGGACAAGGCTGTCCCCCATCTCATCCTGG | -1.15 |
| TCAGATATCTGAATGTACCTTTGAAACCTA | 2.87 |
| GAGAAGGCAGGTAGAAGAAGAGGTCAGCTT | 0.0772 |
| TCCCCCACCTACTGTCTCCTAATCAGCAAC | 1.96 |
| TGGGGTATCAGGTGGTGATGGTGGGAGGGA | 0.113 |
| ATTTGAGCCCAGGAGTTCAAGACTGGTATC | 0.861 |
| GGGTGTAAACCTGGTGGAAGATAAGGGTTA | -0.83 |
| GCCACTGCCTAGATAAAAGGGTCTTAGTAT | 0.712 |
| AATACTTGGAGACAGTGAGACGCAAGCATA | -1.11 |
| GAAAGTACACAGTGCCTGCTTGCAGATAAA | -0.937 |
| ATTCCCCTTTGTCTAAGCTAGTCATAGCTG | -0.0535 |
| AGCTCCAAAAGGTGGACAAGACTGGTTTTT | 0.686 |
| TTTGAACACCTCTTCTTTCTTCTCTGGTAC | 1.58 |
| GCTTCTGTACCTTTGACTATGGGCATGAAG | 1.52 |
| GTCTAGGTTCTGGGGTGATTACCCTTATCT | 1.13 |
| CCTACCAGTATGCAATGTTAGTCTGGGAAA | 0.479 |
| CAATAAGCAATACATTGAACTTTGAACACC | 6.91 |
| GTTTGCAGGGACAATGGATGGAACGTGGAC | 1.49 |

| Sequence | binding signal (log2 normalized intensity) |
| --- | --- |
| TGACGTCATTGGAAATCCGAAATAAACTGA | -1.06 |
| AAGAGCCAAAATGTGTTAGGCAAGCAAACT | -0.953 |
| CATTGAGTCCACTGAGATCACTTGGGGTAA | 0.868 |
| ATCCACTCAGTATGGCAACCTTTGTCCTGC | 4.84 |
| AACATGTAATTGCATGACCAAGTTGTATCA | 0.881 |
| GAGGAGAGAGTAAATAATTGATGAAACAGG | -0.991 |
| TAACTTCCGGCTGGCCTTCCCTCCTCCCTC | 1.92 |
| TGCCCAACCTTTGCCCCTGGAGGGAGACAT | 3.34 |
| CGTGGAAAGTGGAAGAATGGGAAATTCCAT | -1.11 |
| CATCATCTTGTAATCTGCTTCCAGTTCCAT | 0.0747 |
| TTTTGTTCAATATGCTGAAGTCCAACTGCT | 0.989 |
| GACAACATCTGGTGTGGTTAATGATTATGC | 1.25 |
| CAAGCCAGTTTCCAGGGAGGAGAGAAGGGC | -1.13 |
| GATTAAACTTTAGTCAGATTCCTCTGAGTC | 0.587 |
| ATAACTTCAAGGAGCTCGGCGCCAGGAAGC | -1.07 |
| GGATAATGGAGAAGATAAGCAGATCTTTAG | -1.21 |
| TTTCTTAATTGCCCTTTGCCCTTTGCCCAA | 8.01 |
| CTGTCCCTACTCAATTATCACCACACAGCA | -1.04 |
| TGCAAGGGAGACCAGGAAAGTGAATATCTG | -1.16 |
| CTGGTTCTGCAAGGCAACTGACCTTTGGAT | 8.08 |
| GTGTGACCAAGGACAAACTGAGGAGGACAT | -1.01 |

Source: publication PMC10726135
